# The list shows a part of the results.
# Columns and labels:
# Test in all cases: glycan array binding signal (z-score within array); higher = stronger binding
# Details in all cases: glycan notation: IUPAC condensed, linker removed
# [1] = biological target: Gal(a1-3)Gal(b1-3)Glc
# Summary of the method: (§1)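 Glycan array data were curated from 3228 arrays in the Consortium for Functional Glycomics database and kept only where the protein sequence was available. Glycan names were converted to IUPAC-condensed notation, and columns mapping to the same glycan were averaged. The binding signal is a within-array Z-score, averaged across arrays of the same protein sequence at different concentrations or buffers and across linkers. Negative Z-scores can be read as non-binding.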
# [2] = biological target: Gal(a1-3)Gal(b1-3)GlcNAc
# Summary of the method: as §1
# [3] = biological target: Gal(a1-3)Gal(b1-4)GlcNAc
# Summary of the method: as §1
# [4] = biological target: Gal(a1-3)Gal(b1-4)[Fuc(a1-3)]GalNAc
# Summary of the method: as §1
# [5] = biological target: Gal(a1-3)GlcNAc
# Summary of the method: as §1
# [6] = biological target: Gal(a1-3)[Gal(a1-4)]Gal(b1-4)GlcNAc
# Summary of the method: as §1
# [7] = biological target: Gal(a1-4)Gal(b1-4)Gal
# Summary of the method: as §1
# [8] = biological target: Gal(a1-4)Gal(b1-4)GalNAc
# Summary of the method: as §1
# [9] = biological target: Gal(a1-4)GlcNAc
# Summary of the method: as §1
# [10] = biological target: Gal(a1-6)Glc
# Summary of the method: as §1
# [11] = biological target: Gal(b1-2)Gal
# Summary of the method: as §1
# [12] = biological target: Gal(b1-3)Gal
# Summary of the method: as §1
# [13] = biological target: Gal(b1-3)GalNAc
# Summary of the method: as §1
# [14] = biological target: Gal(b1-3)GalNAc(b1-3)Gal(a1-4)Gal(b1-4)Glc
# Summary of the method: as §1
# [15] = biological target: Gal(b1-3)GalNAc(b1-3)Gal(b1-4)Glc
# Summary of the method: as §1
# [16] = biological target: Gal(b1-3)GalNAc(b1-3)Gal(b1-4)GlcNAc
# Summary of the method: as §1
# [17] = biological target: Gal(b1-3)GalNAc(b1-4)Gal(b1-4)Glc
# Summary of the method: as §1
# [18] = biological target: Gal(b1-3)GalNAc(b1-4)[Neu5Ac(a2-3)]Gal(b1-4)Glc
# Summary of the method: as §1
# [19] = biological target: Gal(b1-3)[Fuc(a1-4)]GlcNAc
# Summary of the method: as §1
# [20] = biological target: Gal(b1-3)[Fuc(a1-4)]GlcNAc(b1-3)Gal(b1-4)GlcNAc
# Summary of the method: as §1
# [21] = biological target: Gal(b1-3)[Fuc(a1-4)]GlcNAc(b1-3)Gal(b1-4)[Fuc(a1-3)]GlcNAc
# Summary of the method: as §1
# [22] = biological target: Gal(b1-3)[GlcNAc(b1-6)]GalNAc
# Summary of the method: as §1
# [23] = biological target: Gal(b1-3)[GlcNAc(b1-6)]GlcNAc
# Summary of the method: as §1
# [24] = biological target: Gal(b1-3)[Neu5Ac(a2-6)]GalNAc
# Summary of the method: as §1
# [25] = biological target: Gal(b1-3)[Neu5Ac(a2-6)]GlcNAc
# Summary of the method: as §1
# [26] = biological target: Gal(b1-3)[Neu5Ac(a2-6)]GlcNAc(a1-4)Gal(b1-4)Glc
# Summary of the method: as §1
# [27] = biological target: Gal(b1-3)[Neu5Ac(b2-6)]GlcNAc
# Summary of the method: as §1
# [28] = biological target: Gal(b1-4)GalNAc(a1-3)[Fuc(a1-2)]Gal(b1-4)GlcNAc
# Summary of the method: as §1
# [29] = biological target: Gal(b1-4)GalNAc(b1-3)[Fuc(a1-2)]Gal(b1-4)GlcNAc
# Summary of the method: as §1
# [30] = biological target: Gal(b1-4)Glc
# Summary of the method: as §1
# [31] = biological target: Gal(b1-4)Glc6S
# Summary of the method: as §1
# [32] = biological target: Gal(b1-4)GlcNAc
# Summary of the method: as §1
# [33] = biological target: Gal(b1-4)GlcNAc(b1-2)Man(a1-3)[Gal(b1-4)GlcNAc(b1-2)Man(a1-6)]Man(b1-4)GlcNAc(b1-4)GlcNAc
# Summary of the method: as §1
# [34] = biological target: Gal(b1-4)GlcNAc(b1-3)Gal(b1-4)Glc
# Summary of the method: as §1
# [35] = biological target: Gal(b1-4)GlcNAc(b1-3)Gal(b1-4)GlcNAc
# Summary of the method: as §1
# [36] = biological target: Gal(b1-4)GlcNAc(b1-3)Gal(b1-4)GlcNAc(b1-3)Gal(b1-4)GlcNAc
# Summary of the method: as §1
# [37] = biological target: Gal(b1-4)GlcNAc(b1-3)Gal(b1-4)[Fuc(a1-3)]GlcNAc(b1-3)Gal(b1-4)[Fuc(a1-3)]GlcNAc
# Summary of the method: as §1
# [38] = biological target: Gal(b1-4)GlcNAc(b1-3)GalNAc
# Summary of the method: as §1
binder,measurement,setting,value
"EcCDA (Encephalitazoon cuniculi), Q8SU65 (protein) MLLCLLYFTSSWCSGSDVPDVCTNSGMIAINFVDGPVRGVTDRILNTLDELGVKATFSFTVNQKAVGNVGQLYRRAVEEGHNVALRVDPSMDEGYQCLSQDALENNVDREIDTIDGLSGTEIRYAAVPICNGQVNSEMYNILTERGVLPVGYTFCPYDYDDPVGEFESMIEGSDPKHHSFIILMHDGQEADTSRLENMVKIGKDKGYRFVNMDECLQGYKGAPGDPELSLRGKGVESIGKGFLPFFLMMLVRLL",glycan array binding signal (z-score),[1],-0.153
same,glycan array binding signal (z-score),[2],1.21
same,glycan array binding signal (z-score),[3],-0.232
same,glycan array binding signal (z-score),[4],-0.284
same,glycan array binding signal (z-score),[5],-0.228
same,glycan array binding signal (z-score),[6],-0.139
same,glycan array binding signal (z-score),[7],2.76
same,glycan array binding signal (z-score),[8],1.35
same,glycan array binding signal (z-score),[9],0.111
same,glycan array binding signal (z-score),[10],3.02
same,glycan array binding signal (z-score),[11],-0.328
same,glycan array binding signal (z-score),[12],-0.337
same,glycan array binding signal (z-score),[13],-0.287
same,glycan array binding signal (z-score),[14],-0.316
same,glycan array binding signal (z-score),[15],-0.397
same,glycan array binding signal (z-score),[16],-0.363
same,glycan array binding signal (z-score),[17],0.809
same,glycan array binding signal (z-score),[18],-0.234
same,glycan array binding signal (z-score),[19],-0.277
same,glycan array binding signal (z-score),[20],-0.216
same,glycan array binding signal (z-score),[21],-0.388
same,glycan array binding signal (z-score),[22],-0.324
same,glycan array binding signal (z-score),[23],-0.413
same,glycan array binding signal (z-score),[24],-0.083
same,glycan array binding signal (z-score),[25],-0.012
same,glycan array binding signal (z-score),[26],-0.44
same,glycan array binding signal (z-score),[27],-0.401
same,glycan array binding signal (z-score),[28],1.01
same,glycan array binding signal (z-score),[29],0.124
same,glycan array binding signal (z-score),[30],-0.332
same,glycan array binding signal (z-score),[31],-0.35
same,glycan array binding signal (z-score),[32],0.097
same,glycan array binding signal (z-score),[33],1.57
same,glycan array binding signal (z-score),[34],-0.394
same,glycan array binding signal (z-score),[35],-0.244
same,glycan array binding signal (z-score),[36],-0.411
same,glycan array binding signal (z-score),[37],0.385
same,glycan array binding signal (z-score),[38],-0.319

# Source: the supplement of paper PMC8728848
